# Measurements: the supplement of paper PMC12217912
# The other results are listed elsewhere or left out. Sequences were assembled here from the parent chain. Values near 0.05 are background.
# B1: TEV protease; numbered along this chain (parent)
# chain: MGESLFKGPRDYNPISSSICHLTNESDGHTTSLYGIGFGPFIITNKHLFRRNNGTLVVQSLHGVFKVKDTTTLQQHLVDGRDMIIIRMPKDFPPFPQKLKFREPQREERICLVTTNFQTKSMSSMVSDTSCTFPSGDGIFWKHWIQTKDGQCGSPLVSTRDGFIVGIHSASNFTNTNNYFTSVPKNFMELLTNQEAQQWVSGWRLNADSVLWGGHKVFMVKPEEPFQPVKEATQL
# Variants of: B1
# Test: raw area under fraction-flipped curve 0-4 h after induction (AUC4h, not background-subtracted), DNA-recorder readout of cleavage of the substrate (dimensionless); higher = more cleavage of the substrate by the protease variant
# Conditions: temperature: 34 °C; time window: 0-4 h after rhamnose induction
# Experimental: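 In vivo DNA recorder in E. coli TOP10(DE3) ΔrhaA at 34 °C. Each TEVp single-site mutant (parent TEVp 0) is paired with a single-site variant of the 7-mer TEVs (canonical ENLYFQ|S). The substrate sits between flexible linkers in a Bxb1-sfGFP-TEVs-SsrA fusion, so cleavage stabilises Bxb1 and speeds flipping of a recombination array, read by NGS. The value is the raw area under the fraction-flipped curve over 0-4 h after rhamnose induction (AUC4h), with ≥20 reads per time point. It is not background-subtracted; inactive controls average about 0.047.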
# 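Note: Bxb1 expression induced with 0.2% (w/v) L-rhamnose at OD600 near 0.5, cultures sampled hourly, flipped fraction per protease–substrate barcode pair counted by paired-end Illumina sequencing.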
Variant,area with substrate ANLYFQS,area with substrate CNLYFQS,area with substrate DNLYFQS,area with substrate FNLYFQS,area with substrate GNLYFQS,area with substrate HNLYFQS,area with substrate INLYFQS,area with substrate LNLYFQS,area with substrate MNLYFQS,area with substrate NNLYFQS,area with substrate PNLYFQS,area with substrate RNLYFQS,area with substrate SNLYFQS,area with substrate TNLYFQS,area with substrate WNLYFQS,area with substrate YNLYFQS,area with substrate QNLYFQS,area with substrate KNLYFQS,area with substrate VNLYFQS
Q198I,0.0629,0.0756,0.0788,0.0517,0.0595,0.077,0.0791,0.0733,0.0713,0.059,0.0564,0.0536,0.0515,0.0434,0.0596,0.0699,,,
V183T,0.0743,0.0728,0.0688,,0.0719,0.0641,0.066,0.0713,,0.0665,0.0711,,0.0353,0.0674,0.0607,0.0612,0.0757,,
F173D,0.0573,0.0721,0.0649,0.0458,0.0686,0.0555,0.0739,,0.0595,0.0583,0.0748,0.056,0.0694,0.0811,0.0628,0.0549,0.0762,0.0682,0.0593
F173A,0.0681,0.063,0.0592,,0.0574,0.0466,0.0653,0.0575,0.06,0.0601,0.0595,,0.0537,0.0537,0.0535,,,0.0889,
H168W,0.061,0.0576,0.0608,0.0611,0.0738,0.0572,,0.0841,0.0586,0.0664,0.0606,0.0415,,0.0588,0.0597,0.046,0.0532,0.0554,0.074
T181M,0.057,0.0967,0.0565,,0.0622,0.0531,0.0557,0.0564,,,0.086,0.0607,0.0815,0.0609,0.0589,0.0606,0.0516,0.0567,
T181L,0.056,0.0518,0.0645,,0.0539,0.0583,,,,,0.0674,,,,0.0767,0.0538,0.0812,,0.0569
K148G,0.0534,0.0656,0.0584,0.0267,0.0653,0.0633,0.0613,0.0713,0.0511,0.0635,0.0533,0.0721,0.0565,0.0591,0.0501,0.058,,,0.0614
G162M,0.0697,0.0612,0.0761,,0.0659,0.043,0.0582,0.0616,,,0.087,,,,0.04,0.0529,,0.0499,0.0706
N177A,0.0614,0.088,0.112,0.059,,,0.0698,,0.0808,0.0704,0.0672,,0.0571,0.0726,0.0634,0.0891,0.0465,0.0807,0.0719
N177H,0.062,0.0662,0.0474,0.0834,,0.0706,0.0395,,0.0826,0.0638,,0.0676,0.058,,0.0631,0.0845,0.0465,0.0735,
K185T,0.0552,0.068,0.0607,0.0729,0.0406,0.069,0.0811,,0.069,0.0814,0.0649,,0.0692,0.0657,0.0531,0.059,,0.0674,0.0614
C152S,0.052,0.057,0.0823,,,0.0608,0.0522,0.0621,0.0588,0.0506,0.0418,,,0.0588,0.0507,,,0.0586,
N186L,0.0672,0.0635,0.0657,0.0685,,0.0571,0.0608,,,,0.0371,0.0425,0.0527,0.0866,0.049,,0.0747,,
N186M,0.0597,0.0656,0.0762,,0.0662,0.0612,,,,,0.0786,,,0.0656,0.0599,0.0707,,,0.058
D161C,0.0616,0.0489,0.0626,0.0418,,0.0707,,0.0592,0.0598,,,0.0879,,0.0548,0.0573,,,0.0741,0.0621
D161K,0.0572,0.0709,0.0578,0.0554,0.0702,0.0611,0.0507,0.0551,0.0281,,0.0614,,0.0486,0.0711,0.0618,0.0345,,0.0652,
D161F,0.0442,0.055,0.0456,0.0367,0.0581,0.0469,0.0445,,0.0644,0.0298,0.0565,0.0648,0.0484,0.0524,0.0388,,,0.0593,
G150R,0.0681,0.0674,0.0594,0.0531,0.0528,0.0578,0.056,0.052,0.0543,0.0648,0.0502,,0.0551,0.0647,0.0608,0.0517,,0.0502,0.0693
G150K,0.0479,0.0648,0.0604,,0.0493,0.0554,0.0766,0.0587,0.054,0.04,,0.0602,,0.0461,0.0561,0.0571,,,0.0477
Q197K,0.0349,0.0656,0.0699,,,0.0533,,0.0602,0.0322,,,,0.0655,0.0615,0.0665,0.065,,0.0512,0.0678
Q197G,0.0693,0.0849,0.0884,0.174,,,0.052,0.0633,0.055,,0.062,,0.0573,0.0599,0.0593,0.0601,,0.0687,0.0681
V157A,0.0706,0.0632,0.0582,,,,0.0075,0.0576,,0.0983,0.0536,,0.0593,0.066,0.0658,,0.0742,0.0654,0.0583
S169F,0.0552,0.0556,0.0518,,,0.0538,0.0564,0.0571,,,0.0604,0.0361,,0.0507,0.05,0.0462,,0.0561,
S169T,0.0514,0.0697,0.08,0.0526,0.0685,0.0546,,0.0573,0.071,0.064,0.0601,,,0.064,0.0581,0.0641,0.0553,0.0666,
